Test results from the supplement of paper PMC4604168 (melanoma cell lines).
This is one part of the list. Most values come without repeats; read them as rough.

Each compound was assayed on A101D (assay: cell count relative to DMSO control; melanoma cells; higher = more viable cells). Conditions: library dose: low library concentration; 72 h; first compound 0.4 µM.
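Further: cell number obtained by counting DAPI-stained nuclei in high-throughput microscope images with image analysis software, screen run in 1,536-well plates.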

Row | SMILES | cell count [%]
1 | CCCCCCCCCCCCCCCCCCOP(=O)([O-])OC1CC[N+](C)(C)CC1 [Perifosine] + Cn1cncc1[C@@](N)(c1ccc(Cl)cc1)c1ccc2c(c1)c(-c1cccc(Cl)c1)cc(=O)n2C [tipifarnib] (partner dose 0.01 µM) | 91.4
2 | Cn1sc(=O)n(Cc2ccccc2)c1=O + c1cc(-c2cnn3cc(-c4ccc(OCCN5CCCCC5)cc4)cnc23)ccn1 [Dorsomorphin] (partner dose 0.4 µM) | 89.4
3 | C[C@@H](N)c1ccc(C(=O)Nc2ccnc3[nH]ccc23)cc1 + COC(=O)c1sccc1S(=O)(=O)Nc1ccc(Nc2ccccc2)cc1OC [GSK0660] (partner dose 1 µM) | 105
4 | Cn1sc(=O)n(Cc2ccccc2)c1=O + Oc1cc(-c2nc(-c3ccccc3)[nH]c2-c2ccncc2)ccc1Cl [L779450] (partner dose 0.2 µM) | 102
5 | C[C@@H](N)c1ccc(C(=O)Nc2ccnc3[nH]ccc23)cc1 + C[C@@H](Oc1cc(-c2cnn(C3CCNCC3)c2)cnc1N)c1c(Cl)ccc(F)c1Cl [Crizotinib] (partner dose 0.2 µM) | 102
6 | Cn1sc(=O)n(Cc2ccccc2)c1=O + NCC(=O)Nc1ccc(-n2nc(C(F)(F)F)cc2-c2ccc3c(ccc4ccccc43)c2)cc1 [OSU03012] (partner dose 1 µM) | 101
7 | CCCCCCCCCCCCCCCCCCOP(=O)([O-])OC1CC[N+](C)(C)CC1 [Perifosine] + CC(C)CCN1c2nc(Nc3cc(F)c(O)c(F)c3)ncc2N(C)C(=O)C1C [BID1870] (partner dose 0.2 µM) | 95.8
